# Measurements from PubChem BioAssay AID2528 (National Center for Advancing Translational Sciences (NCATS), 2010).
# Several values for one entry are separate records, joined by “and”; a condition that tells them apart may be missing. Identical values can stand only once. Hit rate of the full screen: of about 350,000 compounds, about 700 (0.2%) were called active. The call rests on the fitted dose curve; in most records, active means well fitted inhibition curve with a large enough effect; inconclusive means small, poorly fitted or top-dose-only effect; inactive means flat fitted curve, though single readings scatter. The entries are a selection whose mix differs from that of the whole data set. A structure can be active in one record and inactive in another.
# Target: RecQ-like DNA helicase BLM (Homo sapiens) (UniProt P54132)
# Experiment: qHTS Assay for Inhibitors of Bloom's syndrome helicase (BLM); further: nearly all actives have a fitted effect of over 35% in size;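 on activity change, negative = inhibition: plate controls were vehicle for no effect and no enzyme for full effect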
# Settings: recombinant BLM DNA unwinding, fluorescence dequenching; series mostly up to 56.1 µM; activity change, negative = inhibition: at the top concentration
# Potency means the concentration at half of the fitted maximal effect.
# Chain of UniProt P54132 (P54132 whole entry, looked up): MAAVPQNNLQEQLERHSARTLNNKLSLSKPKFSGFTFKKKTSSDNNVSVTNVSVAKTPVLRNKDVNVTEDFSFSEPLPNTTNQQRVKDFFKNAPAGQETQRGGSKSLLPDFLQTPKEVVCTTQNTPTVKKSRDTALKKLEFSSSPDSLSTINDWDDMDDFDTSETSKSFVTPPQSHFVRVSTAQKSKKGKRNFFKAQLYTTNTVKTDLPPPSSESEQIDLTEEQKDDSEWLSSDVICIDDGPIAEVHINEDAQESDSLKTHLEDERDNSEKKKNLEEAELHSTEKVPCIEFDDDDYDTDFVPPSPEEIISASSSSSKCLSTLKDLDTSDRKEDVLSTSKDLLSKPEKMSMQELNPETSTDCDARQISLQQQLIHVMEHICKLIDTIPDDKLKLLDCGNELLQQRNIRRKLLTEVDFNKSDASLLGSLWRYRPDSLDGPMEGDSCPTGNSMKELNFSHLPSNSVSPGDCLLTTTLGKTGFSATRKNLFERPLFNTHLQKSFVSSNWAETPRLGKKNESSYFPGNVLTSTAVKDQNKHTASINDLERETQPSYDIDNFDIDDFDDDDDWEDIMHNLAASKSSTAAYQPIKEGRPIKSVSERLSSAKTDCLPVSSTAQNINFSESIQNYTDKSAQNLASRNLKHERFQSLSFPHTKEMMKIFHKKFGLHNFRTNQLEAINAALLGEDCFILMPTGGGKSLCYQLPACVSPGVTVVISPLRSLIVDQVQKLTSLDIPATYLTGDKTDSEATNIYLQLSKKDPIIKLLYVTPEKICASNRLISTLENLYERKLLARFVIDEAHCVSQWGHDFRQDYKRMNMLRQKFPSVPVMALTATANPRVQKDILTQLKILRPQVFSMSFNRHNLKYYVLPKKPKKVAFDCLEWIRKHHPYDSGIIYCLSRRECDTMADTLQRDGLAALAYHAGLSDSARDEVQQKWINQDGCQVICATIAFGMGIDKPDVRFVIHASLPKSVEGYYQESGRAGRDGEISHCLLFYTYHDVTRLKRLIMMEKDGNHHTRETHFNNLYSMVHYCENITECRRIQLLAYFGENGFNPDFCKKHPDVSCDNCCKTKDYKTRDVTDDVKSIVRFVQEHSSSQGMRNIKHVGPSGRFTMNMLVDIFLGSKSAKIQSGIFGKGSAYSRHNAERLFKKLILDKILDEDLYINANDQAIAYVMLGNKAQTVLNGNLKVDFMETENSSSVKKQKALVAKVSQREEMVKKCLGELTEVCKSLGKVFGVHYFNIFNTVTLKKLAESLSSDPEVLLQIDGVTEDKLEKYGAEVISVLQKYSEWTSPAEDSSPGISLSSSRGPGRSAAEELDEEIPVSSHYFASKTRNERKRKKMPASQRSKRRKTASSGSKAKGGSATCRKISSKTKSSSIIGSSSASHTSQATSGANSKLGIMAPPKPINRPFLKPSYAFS
SMILES,"activity change, negative = inhibition",Potency
C[N+]1(C)CCC(OC(=O)C(c2ccccc2)c2ccccc2)CC1,inactive: 3.43%,–
N[C@H](CCCP(=O)(O)O)C(=O)O,–,inactive
CN1C[C@H](C(=O)N[C@]2(C)O[C@]3(O)[C@H]4CCCN4C(=O)[C@H](Cc4ccccc4)N3C2=O)C[C@H]2c3cccc4[nH]cc(c34)C[C@@H]21,inactive: -2.53% [at 21.4 µM],–
CCCCC/C=C\C/C=C\C/C=C\C/C=C\CCCC(=O)NCCO,–,inactive
CC(C)(O)C1C2OC(=O)C1[C@]1(O)CC3O[C@@]34C(=O)OC2[C@@]14C (stereo not given in full),inactive: -11.4%,–
NC(=O)CN1CCCC1=O,–,inactive
CN1CC[C@@]2(C)c3cc(O)ccc3N(C)[C@@H]12,inactive: -6.48%,–
CC[N+](C)(C)c1cccc(O)c1,–,inactive
CCN1C[C@]2(C)CC[C@H](O)[C@@]34[C@@H]5CC6[C@@H](OC)C[C@@](O)([C@@H]5[C@@H]6O)[C@H](C[C@@H]23)[C@H]14,inactive: 4.1% [at 21.4 µM],–
CCCCCCCCCCCCCC(=O)OC1C(C)[C@@]2(O)C(C=C(CO)C[C@]3(O)C(=O)C(C)=C[C@H]23)[C@@H]2C(C)(C)[C@]12OC(C)=O (stereo not given in full),inactive: 0.433%,–
O=C1C(I)=CC(=C(c2cc(I)c(O)c(I)c2)c2ccccc2C(=O)O)C=C1I,–,active: 15.8 µM
NC(N)=NC(=O)c1nc(Cl)c(N)nc1N,–,inactive
CC(C)C[C@H]1C(=O)N2CCC[C@@H]2[C@]2(O)O[C@](NC(=O)[C@@H]3C=C4c5cccc6[nH]c(Br)c(c56)C[C@H]4N(C)C3)(C(C)C)C(=O)N12,inactive: -13.8%,–
COc1ccc(OC)c(N2C(=O)NC(=O)/C(=C/c3ccc([N+](=O)[O-])s3)C2=O)c1,–,active: 10 µM
S=C(NC1CCCCC1)N1CCC(c2cnc[nH]2)CC1,inactive: -0.687%,–
NC(N)=NOCC[C@H](N)C(=O)O,–,inactive
N[C@@H](Cn1oc(=O)[nH]c1=O)C(=O)O,inactive: 1.48%,–
CC(C)CNC(=O)c1c(N)n(Cc2ccc3c(c2)OCO3)c2nc3ccccc3nc12,–,active: 10 µM
CC[C@@H]1C(=O)OC[C@@H]1Cc1cncn1C,–,inactive
C=CCN1CC[C@]23c4c5ccc(O)c4O[C@H]2/C(=N/NC(=O)c2ccccc2)CC[C@@]3(O)[C@H]1C5,inactive: -3.29%,–
CC(=O)[C@]1(O)CCC2C3CCC4=CC(=O)CC[C@@]4(C)C3CC[C@]21C (stereo not given in full),inactive: -8.79%,–
CN1C[C@H](CNC(=O)OCc2ccccc2)C[C@H]2c3cccc4c3c(cn4C)C[C@@H]21,–,inactive
CNC(=O)Oc1ccc2c(c1)C1(C)CCN(C)C1N2C (stereo not given),inactive: 1.6%,–

SMILES,"activity change, negative = inhibition",Potency
C[C@@H]1O[C@@H](O[C@H]2C[C@@H](O)[C@]3(CO)[C@H]4[C@H](O)C[C@]5(C)[C@@H](C6COC(=O)C6)CC[C@]5(O)[C@@H]4CC[C@]3(O)C2)[C@H](O)[C@H](O)[C@H]1O (stereo not given in full),inactive: -1.31%,–
CCN1C[C@]2(C)CC[C@H](O)[C@@]34C5C[C@@H]6[C@@H](OC)C[C@@](O)(C5[C@H]6O)[C@@H](CC23)[C@@H]14 (stereo not given in full),inactive: 1.61%,–
C=CCN1CC[C@]23c4c5ccc(O)c4OC2C(=O)CC[C@]3(O)C1C5 (stereo not given in full),inactive: -1.09%,–
O=C1C=CC(=O)c2c(O)cccc21,–,active: 3.16 µM and active: 5.62 µM
Oc1cc2c(cc1O)[C@H]1c3ccccc3CN[C@@H]1CC2,inactive: -3.18%,–
CCCN(CCC)[C@@H]1CCc2ccc(O)cc2C1,inactive: 1.01%,–
CC1=NCCc2c1[nH]c1cc(O)ccc21,–,inactive
C[N+]1(C)C2CC(OC(=O)C(CO)c3ccccc3)CC1C1OC12 (stereo not given),inactive: 4.63%,–
CN1C[C@H](C(=O)N[C@]2(C)O[C@@]3(O)C4CCCN4C(=O)[C@H](Cc4ccccc4)N3C2=O)C[C@@H]2c3cccc4[nH]cc(c34)C[C@H]21 (stereo not given in full),–,inactive
CC(C)OCCCNC(=O)c1c(N)n(CC2CCCO2)c2nc3ccccc3nc12 (stereo not given),–,active: 5.01 µM
C/C(O)=C(/C#N)C(=O)Nc1cc(Br)ccc1Br,inactive: 3.46%,–
CC(C)CC1C(=O)N2CCCC2C2(O)O[C@@](NC(=O)C3C=C4c5cccc6[nH]c(Br)c(c56)CC4N(C)C3)(C(C)C)C(=O)N12 (stereo not given in full),inactive: -4.92%,–
C[C@H](N)[C@H](O)c1ccc(O)c(O)c1,inactive: -18% [at 21.4 µM],–
CC(C)N(CCC(C(N)=O)(c1ccccc1)c1ccccn1)C(C)C (stereo not given),–,inactive
CC1=CC(=O)c2c(O)cccc2C1=O,inactive: -17.7%,–
OC1CCCCC1N1CCC(c2ccccc2)CC1 (stereo not given),–,inactive
CCOc1cccc(N2C(=O)/C(=C/c3ccco3)C(=O)NC2=S)c1,–,active: 28.2 µM
CCN(CC)c1ncnc2c1ncn2[C@@H]1O[C@@H](COP(=O)(O)OP(=O)(O)C(Br)(Br)P(=O)(O)O)[C@H](O)[C@H]1O,inactive: 7%,–
C=CCN1C[C@H](C)N([C@H](c2ccc(C(=O)N(CC)CC)cc2)c2cccc(OC)c2)C[C@H]1C,–,inactive
CNC(=O)Oc1ccc2c(c1)[C@@]1(C)CCN(C)C1N2C (stereo not given in full),–,inactive
NCC1O[C@@H](O[C@H]2C(O)C(O[C@@H]3C(O[C@H]4OC(CO)C(O)C(O)C4N)C(N)CC(N)[C@H]3O)O[C@@H]2CO)C(N)C(O)C1O (stereo not given in full),inactive: 43.5%,–
N[C@@]1(C(=O)O)CC[C@H](C(=O)O)C1,–,inactive
C=CCN1CCC2(C)c3cc(O)ccc3C[C@H]1[C@H]2C,inactive: 3.96%,–

SMILES,"activity change, negative = inhibition",Potency
C=C(C)[C@H]1CN[C@H](C(=O)O)[C@H]1CC(=O)O,–,inactive
CCOC(=O)c1ncn2c1CN(C)C(=O)c1cc(F)ccc1-2,–,inactive
O=NN(CCCl)C(=O)NCCCl,–,inactive
C[C@H](N)Cc1cnc[nH]1,inactive: 1.77%,–
Nc1nc(N)c2nc(CNc3ccc(C(=O)NC(CCC(=O)O)C(=O)O)cc3)cnc2n1 (stereo not given),inactive: -0.928%,–
Cc1ncc(CNC(=O)N(CCCl)N=O)c(N)n1,inactive: 4.35%,–
COc1ccc2[nH]cc(CCN)c2c1,–,inactive
CC[C@]1(O)C(=O)OCc2c1cc1n(c2=O)Cc2cc3ccccc3nc2-1,inactive: 4.17%,–
CCCCc1ccc(C(=O)O)nc1,–,inactive
CCN(CC)C(=O)N[C@@H]1C[C@@H]2c3cccc4[nH]cc(c34)C[C@H]2N(C)C1,inactive: -5.58%,–
C=CCN1CCC23c4c5ccc(O)c4O[C@H]2C(=O)CC[C@@]3(O)C1C5 (stereo not given in full),inactive: 6.48%,–
C[N+](C)(C)CC#CCOC(=O)Nc1cccc(Cl)c1,inactive: 0.921%,–
O=C1NCN(c2ccccc2)C12CCN(CC1COc3ccccc3O1)CC2 (stereo not given),inactive: -0.206%,–
Cc1c(C(=O)c2cccc3ccccc23)c2cccc3c2n1[C@H](CN1CCOCC1)CO3,inactive: -2.71%,–
CC[C@H]1C(=O)OC[C@H]1Cc1cncn1C,inactive: 4.51% [at 21.4 µM],–
NCCCCN=C(N)N,–,inactive
Cc1o[nH]c(=O)c1C[C@@H](N)C(=O)O,–,inactive
NC(=NCCC[C@H](N)C(=O)O)N[N+](=O)[O-],inactive: -3.08%,–
CC(CCc1ccccc1)NC(C)C(O)c1ccc(O)cc1 (stereo not given),–,inactive
CC[C@@]1(O)C(=O)OCc2c1cc1n(c2=O)Cc2cc3ccccc3nc2-1,–,inactive
CC(=O)N1CCN(c2ccc(OC[C@H]3CO[C@](Cn4ccnc4)(c4ccc(Cl)cc4Cl)O3)cc2)CC1,–,inactive
CCCC[N+]1(C)[C@@H]2CC(OC(=O)[C@H](CO)c3ccccc3)C[C@H]1[C@@H]1O[C@@H]12 (stereo not given in full),inactive: -6.94%,–
CN1CC[C@@]23CCCCC2C1Cc1ccc(O)cc13 (stereo not given in full),inactive: 1.9%,–

SMILES,"activity change, negative = inhibition",Potency
CCCCC/C=C\C/C=C\C/C=C\C/C=C\CCCC(=O)N(Cc1ccc(O)c(Cl)c1)Cc1ccc(O)c(Cl)c1,–,active: 31.6 µM
NCCc1cc(O)c(O)cc1O,inactive: -24.6%,–
Clc1cccc(N2CCNCC2)c1,–,inactive
CNC(=O)Oc1ccc2c(c1)[C@@]1(C)CCN(C)[C@@H]1N2C,–,inactive
CC(C)[C@@]1(NC(=O)[C@@H]2C[C@H]3c4cccc5[nH]cc(c45)C[C@@H]3N(C)C2)O[C@@]2(O)[C@H]3CCCN3C(=O)[C@H](Cc3ccccc3)N2C1=O,–,inactive
O=C(c1ccc2nc(-c3ccco3)c(-c3ccco3)nc2c1)N1CCC2(CC1)OCCO2,–,active: 28.2 µM
CC(=O)N1CCN(c2ccc(OCC3CO[C@@](Cn4ccnc4)(c4ccc(Cl)cc4Cl)O3)cc2)CC1 (stereo not given in full),inactive: 0.27%,–
CN1CCC(c2c[nH]c3ccc(O)cc23)CC1,inactive: -13.4%,–
CC(C)[C@@]1(NC(=O)[C@@H]2C[C@@H]3c4cccc5[nH]cc(c45)C[C@H]3N(C)C2)O[C@@]2(O)[C@@H]3CCCN3C(=O)[C@H](Cc3ccccc3)N2C1=O,–,inactive
NC[C@@H]1O[C@H](OC2[C@@H](CO)O[C@@H](OC3[C@H](O)[C@H](N)C[C@H](N)[C@H]3OC3O[C@H](CO)[C@@H](O)[C@H](O)[C@@H]3N)[C@H]2O)C(N)[C@H](O)[C@@H]1O (stereo not given in full),inactive: 3.18%,–
O=C(O)CCCc1ccc(N(CCCl)CCCl)cc1,–,inactive
c1ccc2c(c1)OC[C@@H](C1=NCCN1)O2,–,inactive
C[N+]1(C)[C@@H]2CC[C@H]1CC(OC(=O)[C@@H](CO)c1ccccc1)C2 (stereo not given in full),–,inactive
Cc1[nH]c2ccc(O)cc2c1CCN,inactive: -0.493%,–
COc1ccc(C(=O)N2CCCC2=O)cc1,–,inactive
CCCCCCCCCCCCCC(=O)O[C@@H]1[C@@H](C)[C@@]2(O)[C@@H](C=C(CO)C[C@]3(O)C(=O)C(C)=C[C@@H]23)[C@@H]2C(C)(C)[C@]12OC(C)=O,inactive: -14.3%,–
CC[C@@H](CO)NC(=O)[C@H]1C=C2c3cccc4[nH]cc(c34)C[C@H]2N(C)C1,inactive: -10.3%,–
CN(C)C(=O)C(CCN1CCC(O)(c2ccc(Cl)cc2)CC1)(c1ccccc1)c1ccccc1,–,inactive
CO[C@H]1CC=C2CCN3CCC4=C(CC(=O)OC4)[C@]23C1,inactive: 1.93%,–
NC[C@@H]1O[C@H](O[C@H]2[C@@H](O)[C@H](O[C@@H]3[C@@H](O)[C@H](N)C[C@H](N)[C@H]3O[C@H]3O[C@H](CO)[C@@H](O)[C@H](O)[C@H]3N)O[C@@H]2CO)[C@H](N)[C@@H](O)[C@@H]1O,inactive: -10%,–
COc1ccc(-n2nc(C(F)(F)F)cc2-c2ccc(Cl)cc2)cc1,inactive: -10%,–
